Test results reported in US5786324A, “Synthetic peptides with bactericidal activity and endotoxin neutralizing activity for gram negative bacteria and methods for their use” (priority 1994, dated 1998).
At least one peptide structure holds a part that was inferred or is arguable (an end, a ring closure or a residue). Positions of bridges follow the written chain, without caps; N, C: chain ends. Residues, ends and D or L forms follow the SMILES beside them. No end group written: not given here.

Tested on: E. coli 055: B5 LPS
Assay: Limulus amoebocyte lysate assay, neutralization of endotoxin
Assay type: biochemical
Details: for Effective Dose Endotoxin Neutralization (Molar Concentration): Table 8, LAL
Text: The peptide selected can also have endotoxin neutralizing activity. […] Endotoxin neutralizing activity can also be measured by calculating an inhibitory dose 50 […] using standard does response methods. An inhibitory dose 50 is that amount of peptide that can inhibit 50% of the activity of endotoxin. Endotoxin activity can also be measured by determining the amount of release of tumor necrosis factor alpha (TNFα) from a macrophage cell line or by evaluating the symptoms of shock in animals. Peptides preferably neutralized endotoxin at a molar concentration of about 1×10^-4 M to about 10^-8 M , more preferably about 10^-5 M to about 10^-6 M .
The ability of synthetic peptides to neutralize endotoxin was detected with the E-TOXATE kit manufactured by Sigma Chemicals, St. Louis, Mo. […] Peptide was incubated with LPS at room temperature for 10 minutes in 100 μl of a 1:2 dilution of pyrogen-free saline, pH 6.4. The reaction was started by addition of 100 μl of amoebocyte lysate and the final volume was 200 μl.
^a The dose of peptide required to inhibit clotting of LAL by 100%.
Each tube contained 0.04 endotoxin units of E. coli LPS.

[1] = Table 7, dose required to inhibit clotting of LAL by 100%, 0.04 endotoxin units of E. coli LPS

CSCC[C@H](NC(=O)[C@H](CCCCN)NC(=O)[C@H](CC(C)C)NC(=O)[C@H](Cc1ccccc1)NC(=O)[C@H](CCCNC(=N)N)NC(=O)[C@H](CCCCN)NC(=O)[C@H](CCC(N)=O)NC(=O)[C@H](C)NC(=O)[C@H](CCCCN)NC(=O)[C@H](Cc1c[nH]c2ccccc12)NC(=O)[C@H](CCCCN)NC(=O)[C@@H](N)CS)C(=O)N[C@@H](CO)C(=O)NCC(=O)O [Peptide 9b, ckwkaqkrflkmsg]
Effective Dose Endotoxin Neutralization (Molar Concentration): -- (not active at concentrations of 4.5 × 10^-4 M or less)

CC(C)C[C@@H]1NC(=O)[C@H](Cc2ccccc2)NC(=O)[C@H](CCCNC(=N)N)NC(=O)[C@H](CCCCN)NC(=O)[C@H](CCC(N)=O)NC(=O)[C@H](C)NC(=O)[C@H](CCCCN)NC(=O)[C@H](Cc2c[nH]c3ccccc23)NC(=O)[C@H](CCCCN)NC(=O)[C@@H](N)CSSC[C@@H](C(=O)O)NC(=O)[C@H](CCCCN)NC1=O [cyclic 20a]
Effective Dose Endotoxin Neutralization (Molar Concentration): 450 µM

CC(C)C[C@@H]1NC(=O)[C@H](Cc2ccccc2)NC(=O)[C@H](CCCCN)NC(=O)[C@@H](NC(=O)[C@H](CCCCN)NC(=O)[C@@H](NC(=O)[C@@H](N)CCCCN)[C@@H](C)O)CSSC[C@@H](C(=O)O)NC(=O)[C@H](CCCCN)NC(=O)[C@H](CCCCN)NC1=O [cyclic 25, reference compound] (H-KTKCKFLKKC-OH; disulfide 4-10)
Effective Dose Endotoxin Neutralization (Molar Concentration): 450 µM

CC[C@H](C)[C@@H]1NC(=O)[C@H](CCCCN)NC(=O)[C@@H](N)CSSC[C@@H](C(=O)O)NC(=O)[C@H](Cc2ccccc2)NC(=O)[C@H](CC(N)=O)NC(=O)CNC(=O)[C@H](CO)NC(=O)[C@H](CCSC)NC(=O)[C@H](CCCCN)NC(=O)[C@H](CC(C)C)NC(=O)[C@H](Cc2ccccc2)NC(=O)[C@H](CCCNC(=N)N)NC(=O)[C@H](CCCCN)NC(=O)[C@H](CCC(N)=O)NC(=O)[C@H](C)NC(=O)[C@H](CCCCN)NC(=O)[C@H](Cc2c[nH]c3ccccc23)NC(=O)[C@H](CCCCN)NC(=O)CNC(=O)[C@H](CO)NC1=O [cyclic 36] (H-CKISGKWKAQKRFLKMSGNFC-OH; disulfide 1-21)
Effective Dose Endotoxin Neutralization (Molar Concentration): 225 µM

CC[C@H](C)[C@H](NC(=O)[C@H](CCCCN)NC(=O)[C@@H](N)CSSC[C@H](N)C(=O)N[C@@H](CCCCN)C(=O)N[C@H](C(=O)N[C@@H](CO)C(=O)NCC(=O)N[C@@H](CCCCN)C(=O)N[C@@H](Cc1c[nH]c2ccccc12)C(=O)N[C@@H](CCCCN)C(=O)N[C@@H](C)C(=O)N[C@@H](CCC(N)=O)C(=O)N[C@@H](CCCCN)C(=O)N[C@@H](CCCNC(=N)N)C(=O)N[C@@H](Cc1ccccc1)C(=O)N[C@@H](CC(C)C)C(=O)N[C@@H](CCCCN)C(=O)O)[C@@H](C)CC)C(=O)N[C@@H](CO)C(=O)NCC(=O)N[C@@H](CCCCN)C(=O)N[C@@H](Cc1c[nH]c2ccccc12)C(=O)N[C@@H](CCCCN)C(=O)N[C@@H](C)C(=O)N[C@@H](CCC(N)=O)C(=O)N[C@@H](CCCCN)C(=O)N[C@@H](CCCNC(=N)N)C(=O)N[C@@H](Cc1ccccc1)C(=O)N[C@@H](CC(C)C)C(=O)N[C@@H](CCCCN)C(=O)O [dimer 8b]
Effective Dose Endotoxin Neutralization (Molar Concentration): 300 µM

CEFYSENHHNPKWKAQKRFLK [Peptide 17, cefysenhhnpkwkaqkrflk]
peptide concentration which neutralized endotoxin (100% inhibition of LPS-induced gelation) (0.04 endotoxin units of E. coli 055: B5 LPS): 120 µM | Effective Dose (μg/0.2 ml) [1]: 81 μg/0.2 ml | Effective Dose M (× 10^-4) [1]: 1.2 M (× 10^-4) | Effective Dose Endotoxin Neutralization (Molar Concentration): 120 µM

CKELKRIKIPDY [Peptide 6b, ckelkrikipdy]
Effective Dose Endotoxin Neutralization (Molar Concentration): -- (not active at concentrations of 4.5 × 10^-4 M or less)

CKKIESALRNKM [Peptide 7b, ckkiesalrnkm]
Effective Dose Endotoxin Neutralization (Molar Concentration): 450 µM

CKLGSNPTSGK [Peptide 10b, cklgsnptsgk]
Effective Dose Endotoxin Neutralization (Molar Concentration): -- (not active at concentrations of 4.5 × 10^-4 M or less)

IKTKKFLKKT [Peptide 24 pure, iktkkflkkt, reference compound]
Effective Dose Endotoxin Neutralization (Molar Concentration): 300 µM

MNSQVCEKVTNSVSSKLQPYFQTLPVMTKI [Peptide 16, mnsqvcekvtnsvssklqpyfqtlpvmtki]
Effective Dose Endotoxin Neutralization (Molar Concentration): 150 µM
